Among all 310,000 compounds or so, about 14,000 (4.5%) showed an effect of 50% or more. Effects have a minus sign here. This is one part of the list.
target: human ether-à-go-go-related gene (hERG) potassium channel (human, UniProt Q12809); assay: primary screen, population patch clamp on CHO cells stably expressing hERG
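Further: peak tail current of the secondary pulse compared with the same well before compound.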

human ether-à-go-go-related gene (hERG) potassium channel, sequence (Q12809 whole entry, looked up): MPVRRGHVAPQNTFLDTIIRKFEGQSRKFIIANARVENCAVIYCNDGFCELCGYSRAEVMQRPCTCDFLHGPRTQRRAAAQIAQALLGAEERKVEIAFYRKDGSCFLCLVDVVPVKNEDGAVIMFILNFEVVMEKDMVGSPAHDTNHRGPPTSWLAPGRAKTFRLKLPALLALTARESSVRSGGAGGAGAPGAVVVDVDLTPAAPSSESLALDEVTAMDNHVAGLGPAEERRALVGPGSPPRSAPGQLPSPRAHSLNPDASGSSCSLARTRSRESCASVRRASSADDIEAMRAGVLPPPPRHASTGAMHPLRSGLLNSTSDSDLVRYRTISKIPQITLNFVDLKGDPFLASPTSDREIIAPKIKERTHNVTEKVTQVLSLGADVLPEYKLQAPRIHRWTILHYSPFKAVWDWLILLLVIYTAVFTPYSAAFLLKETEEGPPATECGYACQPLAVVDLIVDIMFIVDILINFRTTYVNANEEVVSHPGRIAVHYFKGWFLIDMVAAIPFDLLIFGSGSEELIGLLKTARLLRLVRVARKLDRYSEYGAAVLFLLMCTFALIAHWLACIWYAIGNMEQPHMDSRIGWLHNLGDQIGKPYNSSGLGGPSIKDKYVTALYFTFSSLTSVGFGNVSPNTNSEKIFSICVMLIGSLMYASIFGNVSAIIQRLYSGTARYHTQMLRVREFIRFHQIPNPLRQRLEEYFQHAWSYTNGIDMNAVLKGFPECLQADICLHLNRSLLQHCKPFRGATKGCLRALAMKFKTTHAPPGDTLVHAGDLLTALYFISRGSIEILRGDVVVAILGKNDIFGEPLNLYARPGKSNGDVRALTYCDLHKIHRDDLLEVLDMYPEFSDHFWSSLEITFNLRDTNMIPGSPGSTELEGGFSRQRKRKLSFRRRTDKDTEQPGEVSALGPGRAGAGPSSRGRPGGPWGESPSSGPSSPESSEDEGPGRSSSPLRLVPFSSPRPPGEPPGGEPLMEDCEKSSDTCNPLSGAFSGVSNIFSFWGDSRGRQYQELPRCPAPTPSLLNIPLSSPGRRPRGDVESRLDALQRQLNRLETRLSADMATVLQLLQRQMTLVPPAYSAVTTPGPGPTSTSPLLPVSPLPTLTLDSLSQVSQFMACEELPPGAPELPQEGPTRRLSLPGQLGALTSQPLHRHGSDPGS

Point of comparison: `Cc1ccsc1C(=O)N1CCCC(N2CCN(c3cccc(Cl)c3)CC2)C1` (stereo not shown), “hERG current change (%, negative = inhibition) at 10uM” value -22.2%. Against it:
- CC1(C)Cc2ccccc2-c2c1c(=O)n(Cc1ccccc1)c1nnnn21 — higher, -3.67%
- CNC(=O)C(NC(=O)CNC(=O)c1ccc(Cl)cc1)C(C)(C)C (stereo not shown) — higher, 21.6%
- COC(=O)CCN1CCC(c2cc(-c3cccc(C(F)(F)F)c3)n[nH]2)CC1 — lower, -72.2%
- OC1(c2cccc(C(F)(F)F)c2)CCN(c2ncnc3c2[nH]c2ccccc23)CC1 — lower, -22.6%
- Cc1cc(OC(=O)Cc2cccc3ccccc23)c([N+](=O)[O-])c(=O)[nH]1 — higher, 16.1%
- Cc1ccc(-c2noc(CCC(=O)NC3CCCC3)n2)cc1 — higher, 2.17%
- Cc1ccc(S(=O)(=O)N2CCC(C(=O)OCC(=O)N(C)c3ccccc3)CC2)cc1C — higher, 3.15%
- Cc1ccc2nc(NCc3ccco3)c(C=NCc3ccco3)c(=O)n2c1 — higher, -5.94%
- CC(=O)OC1CCC2(C)C(CCC3C2CC(OC(C)=O)C2(C)C3C[C@@H]3O[C@]4(CC[C@@H](C)CO4)[C@@H](C)C32)C1 (stereo partly shown) — higher, 7.43%
- Cc1cc(C)c2c(CN3CCN(C)CC3)cc(=O)oc2c1 — lower, -73.3%
- CC1C(=O)C(C)C(c2ccc(O)cc2)NC1c1ccc(O)cc1 (stereo not shown) — higher, 23%
- COc1cc(C(=O)N2CCN(S(=O)(=O)c3cccc(F)c3)CC2)ccc1OCC(=O)N1CCOCC1 — higher, -0.874%
- COc1ccc(S(=O)(=O)N(C)c2ccc(C(=O)N3CCOCC3)cc2)cc1 — higher, -6.62%
- O=C(c1ccc2c(c1)OCO2)N1CCOCC1 — higher, 17.5%
- CSc1ccccc1C(=O)N1CCC(n2nccc2NC(=O)C(C)(C)C)CC1 — higher, 33.5%
- NC(=O)c1ccc(NC(=O)CCNC(=O)c2ccco2)cc1 — higher, 10.1%
- Cc1cc2c(cc1S(=O)(=O)N1CC(C)CC(C)C1)OCC(=O)N2 (stereo not shown) — higher, 1.32%
- COC(=O)c1cc(NC(=O)c2cc(-c3ccc(Cl)cc3)oc2C(F)(F)F)ccc1N1CCOCC1 — higher, 14.7%
- O=C1CC(N2CCN(c3ccccc3)CC2)C(=O)N1Cc1ccc(Cl)cc1 (stereo not shown) — lower, -35.1%
- COc1cc(C)c(-c2nc(CN3C[C@@H]4C[C@@H](C3)c3cccc(=O)n3C4)c(C)o2)cc1C — lower, -57.6%
- COc1ccc(Cc2nnc(SCC(=O)Nc3ccc(N4CCOCC4)cc3)n2C)cc1 — higher, 8.93%
- CCOc1cc(-c2nc3ccccc3s2)ccc1O — higher, 4.57%
- CC(=O)NCCSCCNC(C)=O — higher, 9.63%
- COc1ccccc1NC(=O)CNC(=O)c1ccc(F)cc1 — higher, 1.55%
- NC(=O)CSc1nc2ccccc2c(=O)n1Cc1ccco1 — lower, -36%
- CC(=O)NCCNc1nc2c(-c3cccc(C)c3)nnn2c2ccccc12 — higher, 12.8%
- CC1=CC(=Nc2c(C)n(C)n(-c3ccccc3)c2=O)C=C(C)C1=O — higher, 13.4%
- CC(=O)Nc1ccc(C2=NNC(=Nc3ccc(S(=O)(=O)N4CCOCC4)cc3)SC2)cc1 — higher, 1.14%
- CCc1ccc(NC(=O)c2nc(S(=O)(=O)Cc3ccccc3)ncc2Cl)cc1 — higher, 37.2%
- Cn1c(O)c(C=Nc2ccc(Br)cc2)sc1=O — higher, 32.3%
- C1CNC(C23CC4CC(CC(C4)C2)C3)=N1 — higher, 14.4%
- O=C(CCCN1C(=O)NC2(CCCC2)C1=O)Nc1ccc(F)cc1 — higher, 3.91%
- Cc1cc(C(=O)N[C@H](c2ccccc2)[C@@]2(C)C[C@@H]2[C@@H](C)C(=O)Nc2ccc3ccccc3c2)n(C)n1 — higher, -8.32%
- CC(C)c1cc(-c2cc(-c3ccc(Cl)cc3)on2)nc(NC2CCCC2)n1 — higher, 13.3%
- CC1CN(c2nc3ccccc3cc2-c2ccccc2)CC(C)O1 (stereo not shown) — higher, -1.86%
- COc1ccc(NC(=O)CN2CCC(NC(=O)C3CCCCC3)CC2)cc1 — lower, -27.5%
- Cc1ccccc1NC(=O)c1nc2nccc(C)n2n1 — higher, -2.88%
- CCC(Sc1nc2ccc(N)cc2s1)C(=O)Nc1nccs1 (stereo not shown) — higher, 7.08%
- COc1ccc(S(=O)(=O)n2ccc(C(C)Oc3ccc(-c4ccccc4)c(F)c3)n2)cc1 (stereo not shown) — higher, 17.4%
- Cc1ccc(NC(=O)c2ccc(CSc3ncnc4nc[nH]c34)cc2)c(C)c1 — higher, 7.48%
- CCC(=O)N1c2ccc(S(=O)(=O)NC3CCCCC3)cc2CC1C (stereo not shown) — higher, -12.1%
- CCOC(=O)C1=C(C)NC(C)=C(C(=O)OCC)C1C(=O)OCC(=O)N1CCc2ccccc2C1 — higher, -3.85%
- COc1ccc(-c2nc3c(c(SCC(=O)N4CCOCC4)n2)COC(C)(C)C3)cc1 — higher, -7.61%
- Cc1ccc(-n2c(=O)c3c4c(sc3n(Cc3cc(=O)n5ccccc5n3)c2=O)CCC4)cc1C — lower, -69.1%
- Cc1cc(NC(=O)c2ccno2)no1 — higher, 13.8%
- NC(=O)/C(=N\OC(=O)c1ccco1)c1nc(-c2ccc(Br)cc2)cs1 — higher, 7.28%
- O=C(CSc1ccccc1)Nc1ccc(S(=O)(=O)Nc2ncccn2)cc1 — higher, -20.9%
- O=C1/C(=C/c2ccc(F)c(F)c2)CSc2sccc21 — higher, 8.63%
- Cc1ccc(S(=O)(=O)c2nc(S(=O)(=O)c3ccccc3)sc2N2CCN(C)CC2)cc1 — lower, -42.3%
- Cc1cc2oc3c(c(=O)c2cc1C)C(c1cccc(Br)c1)N(Cc1ccco1)C3=O (stereo not shown) — higher, 13.4%
- NS(=O)(=O)c1ccc(-n2nncc2C23CC4CC(CC(C4)C2)C3)cc1 — higher, -11.4%
- O=C(Nc1ccc(F)c(Cl)c1)c1ccccc1 — higher, 0.672%
- Cc1c(Cl)cccc1NC(=S)Nc1ccccn1 — higher, -9.13%
- Nc1nonc1-n1nnc(C(=O)c2ccccc2)c1-c1ccccc1 — higher, -0.617%
